# Experimental data taken from the supplement of paper PMC8728848.
# Some of the results follow.
# Tests used:
# Assay in all cases: glycan array binding signal (z-score within array); higher = stronger binding
# Conditions in all cases: glycan notation: IUPAC condensed, linker removed
# [1] = target: Gal(b1-3)[Fuc(a1-4)]GlcNAc
# How it was run: (§1)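 Glycan array data came from 3228 arrays in the Consortium for Functional Glycomics database, and only arrays with an available protein sequence were kept. Glycan names were put into IUPAC-condensed notation, and columns mapping to the same glycan were averaged. The binding signal is a within-array Z-score, averaged across arrays of one protein sequence run at different concentrations or buffers and across linkers. A negative Z-score can be read as non-binding.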
# [2] = target: Gal(b1-3)[Fuc(a1-4)]GlcNAc(b1-2)Man(a1-3)[Gal(b1-3)[Fuc(a1-4)]GlcNAc(b1-2)Man(a1-6)]Man(b1-4)GlcNAc(b1-4)GlcNAc
# How it was run: as §1
# [3] = target: Gal(b1-3)[Fuc(a1-4)]GlcNAc(b1-2)Man(a1-3)[Gal(b1-3)[Fuc(a1-4)]GlcNAc(b1-2)Man(a1-6)]Man(b1-4)GlcNAc(b1-4)[Fuc(a1-6)]GlcNAc
# How it was run: as §1
# [4] = target: Gal(b1-3)[Fuc(a1-4)]GlcNAc(b1-3)Gal(b1-3)[Fuc(a1-4)]GlcNAc
# How it was run: as §1
# [5] = target: Gal(b1-3)[Fuc(a1-4)]GlcNAc(b1-3)Gal(b1-4)GlcNAc
# How it was run: as §1
# [6] = target: Gal(b1-3)[Fuc(a1-4)]GlcNAc(b1-3)Gal(b1-4)[Fuc(a1-3)]GlcNAc
# How it was run: as §1
# [7] = target: Gal(b1-3)[GlcNAc(b1-6)]GalNAc
# How it was run: as §1
# [8] = target: Gal(b1-3)[Neu5Ac(a2-6)]GalNAc
# How it was run: as §1
# [9] = target: Gal(b1-3)[Neu5Ac(a2-6)]GlcNAc(b1-6)Gal(b1-4)Glc
# How it was run: as §1
# [10] = target: Gal(b1-3)[Neu5Ac(b2-6)]GalNAc
# How it was run: as §1
# [11] = target: Gal(b1-4)GalNAc(a1-3)[Fuc(a1-2)]Gal(b1-4)GlcNAc
# How it was run: as §1
# [12] = target: Gal(b1-4)GalNAc(b1-3)[Fuc(a1-2)]Gal(b1-4)GlcNAc
# How it was run: as §1
# Gal(b1-4)Glc = target: Gal(b1-4)Glc
# How it was run: as §1
# Gal(b1-4)Glc6S = target: Gal(b1-4)Glc6S
# How it was run: as §1
# Gal(b1-4)GlcNAc = target: Gal(b1-4)GlcNAc
# How it was run: as §1
# [13] = target: Gal(b1-4)GlcNAc(a1-6)Gal(b1-4)GlcNAc
# How it was run: as §1
# [14] = target: Gal(b1-4)GlcNAc(b1-2)Man(a1-3)Man(b1-4)GlcNAc(b1-4)GlcNAc
# How it was run: as §1
# [15] = target: Gal(b1-4)GlcNAc(b1-2)Man(a1-3)[Gal(b1-4)GlcNAc(b1-2)Man(a1-6)]Man(b1-4)GlcNAc(b1-4)GlcNAc
# How it was run: as §1
# [16] = target: Gal(b1-4)GlcNAc(b1-2)Man(a1-3)[Gal(b1-4)GlcNAc(b1-2)Man(a1-6)]Man(b1-4)GlcNAc(b1-4)[Fuc(a1-6)]GlcNAc
# How it was run: as §1
# [17] = target: Gal(b1-4)GlcNAc(b1-2)Man(a1-3)[Man(a1-6)]Man(b1-4)GlcNAc(b1-4)GlcNAc
# How it was run: as §1
# [18] = target: Gal(b1-4)GlcNAc(b1-2)Man(a1-6)Man(b1-4)GlcNAc(b1-4)GlcNAc
# How it was run: as §1
# [19] = target: Gal(b1-4)GlcNAc(b1-2)Man(a1-6)[Man(a1-3)]Man(b1-4)GlcNAc(b1-4)GlcNAc
# How it was run: as §1
# [20] = target: Gal(b1-4)GlcNAc(b1-2)[Gal(b1-4)GlcNAc(b1-4)]Man(a1-3)[Gal(b1-4)GlcNAc(b1-2)Man(a1-6)]Man(b1-4)GlcNAc(b1-4)GlcNAc
# How it was run: as §1
# [21] = target: Gal(b1-4)GlcNAc(b1-3)Gal(b1-3)GlcNAc
# How it was run: as §1
# [22] = target: Gal(b1-4)GlcNAc(b1-3)Gal(b1-4)Glc
# How it was run: as §1
# [23] = target: Gal(b1-4)GlcNAc(b1-3)Gal(b1-4)GlcNAc
# How it was run: as §1
# [24] = target: Gal(b1-4)GlcNAc(b1-3)Gal(b1-4)GlcNAc(b1-3)Gal(b1-4)GlcNAc
# How it was run: as §1
# [25] = target: Gal(b1-4)GlcNAc(b1-3)Gal(b1-4)[Fuc(a1-3)]GlcNAc(b1-3)Gal(b1-4)[Fuc(a1-3)]GlcNAc
# How it was run: as §1
# [26] = target: Gal(b1-4)GlcNAc(b1-3)GalNAc
# How it was run: as §1
# [27] = target: Gal(b1-4)GlcNAc(b1-3)[Gal(b1-4)GlcNAc(b1-6)]Gal(b1-4)GlcNAc
# How it was run: as §1
binder,measurement,setting,value
"GALT1 115 D492A (Arabidopsis thaliana), Q8L7F9 (protein) DPMRGSHHHHHHGMASMTGGQQMGRDLYDDDDKSRLQKPYITAAASVVVTPNTTLPMEWLRITLPDFMKEARNTQEAISGDDIAVVSGLFVEQNVSKEEREPLLTWNRLESLVDNAQSLVNGVDAIKEAGIVWESLVSAVEAKKLVDVNENQTRKGKEELCPQFLSKMNATEADGSSLKLQIPCGLTQGSSITVIGIPDGLVGSFRIDLTGQPLPGEPDPPIIVHYNVRLLGDKSTEDPVIVQNSWTASQDWGAEERCPKFDPDMNKKVDDLDECNKMVGGEINRTSSTSLQSNTSRGVPVAREASKHEKYFPFKQGFLSVATLRVGTEGMQMTVDGKHITSFAFRDTLEPWLVSEIRITGDFRLISILASGLPTSEESEHVVDLEALKSPTLSPLRPLDLVIGVFSTANNFKRRMAVRRTWMQYDDVRSGRVAVRFFVGLHKSPLVNLELWNEARTYGDVQLMPFVDYYSLISWKTLAICIFGTEVDSAKFIMKTDDAAFVRVDEVLLSLSMTNNTRGLIYGLINSDSQPIRNPDSKWYISYEEWPEEKYPPWAHGPGYIVSRDIAESVGKLFKEGNLKMFKLEDVAMGIWIAELTKHGLEPHYENDGRIISDGCKDGYVVAHYQSPAEMTCLWRKYQETKRSLCCREW",glycan array binding signal (z-score),[1],-0.405
same,glycan array binding signal (z-score),[2],0.286
same,glycan array binding signal (z-score),[3],-0.152
same,glycan array binding signal (z-score),[4],-0.081
same,glycan array binding signal (z-score),[5],-0.205
same,glycan array binding signal (z-score),[6],-0.353
same,glycan array binding signal (z-score),[7],-0.268
same,glycan array binding signal (z-score),[8],-0.128
same,glycan array binding signal (z-score),[9],-0.069
same,glycan array binding signal (z-score),[10],-0.062
same,glycan array binding signal (z-score),[11],-0.161
same,glycan array binding signal (z-score),[12],-0.47
same,glycan array binding signal (z-score),Gal(b1-4)Glc,-0.124
same,glycan array binding signal (z-score),Gal(b1-4)Glc6S,-0.427
same,glycan array binding signal (z-score),Gal(b1-4)GlcNAc,-0.364
same,glycan array binding signal (z-score),[13],-0.068
same,glycan array binding signal (z-score),[14],-0.019
same,glycan array binding signal (z-score),[15],-0.144
same,glycan array binding signal (z-score),[16],0.529
same,glycan array binding signal (z-score),[17],0.037
same,glycan array binding signal (z-score),[18],-0.277
same,glycan array binding signal (z-score),[19],-0.253
same,glycan array binding signal (z-score),[20],-0.255
same,glycan array binding signal (z-score),[21],-0.291
same,glycan array binding signal (z-score),[22],0.408
same,glycan array binding signal (z-score),[23],0.241
same,glycan array binding signal (z-score),[24],-0.243
same,glycan array binding signal (z-score),[25],-0.056
same,glycan array binding signal (z-score),[26],-0.374
same,glycan array binding signal (z-score),[27],-0.171
